# Reference: PubChem BioAssay (NCATS)
# This list was built around the results that the source calls inconclusive (neither active nor inactive); the mix of calls is not that of the screen. For some of these results: Potencies of inconclusive entries are left out as doubtful fits. For some of these results: A note “side channel” means that the fit belongs to a control or component signal, not to the main read-out. Active and inactive are the calls of the source. Unless noted, calls follow the shape of the dose curve; as a rule, active = well fitted curve in the direction sought with a large enough effect; inconclusive = small, poorly fitted or top-dose-only effect, or another doubt; inactive = no such curve, though single readings can be large; an effect the other way counts as inactive or inconclusive.
# Legend:
# [1] = target: Peroxisome proliferator-activated receptor gamma (Homo sapiens) (UniProt P37231); assay: qHTS assay for small molecule agonists of peroxisome proliferator-activated receptor gamma signaling (AID 588536; active = well fitted curve in the direction sought with a large enough effect in the signal ratio, with a control signal flat, not every such curve was filed as active; inconclusive = small, poorly fitted or top-dose-only effect, or effect the other way, or a change in a side signal; inactive = no such curve, though single readings can be large or run the other way; the % refers to the signal ratio;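 also: 0% = DMSO basal wells and 100% = rosiglitazone at 2 µM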); conditions: HEK293 PPARg-UAS-bla, beta-lactamase ratio, 16 h; activation: at 76.7 µM (top of the series), percent of rosiglitazone response, DMSO as zero
# How it was run: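 Beta-lactamase reporter read-out: CCF4 fluorescence (ex 405, em 460/530 nm) after 2 h at RT. HEK293 GeneBLAzer cells were treated for 16 h at 37 C. Hill fits gave EC50 and efficacy versus 2 uM rosiglitazone (100%) and DMSO (0%).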
# [2] = target: Furin (Homo sapiens) (UniProt P09958); assay: Furin counterscreen qHTS for Zika virus inhibitors (AID 1347149); conditions: furin enzymatic counterscreen, fluorogenic substrate; series mostly up to 57.5 µM; also: potency is read from the fitted curve at half-maximal effect; nearly all actives have a fitted effect of over 70% in size
# How it was run: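 Counterscreen measures cleavage of 2 microM BOC-RVRR-AMC, below its ~15 microM Km, by 5 nM full-length human furin at pH 7.0 after a 15-min compound preincubation. Inhibition derives from the 15-min fluorescence increase at 37C.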
# [3] = target: Cytochrome P450 2C19 (Homo sapiens) (UniProt P33261); assay: qHTS Assay for Inhibitors and Substrates of Cytochrome P450 2C19 (AID 899); conditions: recombinant CYP2C19, luciferin-H EGE luminescence; activity, negative = inhibition: at 57.1 µM (top of the series); also: nearly all actives have a fitted effect of over 60% in size; also: potency is read from the fitted curve at half-maximal effect; as to activity, negative = inhibition: top concentration of the series differs between compounds; % is scaled to controls: 0 for no effect and ±100 for the full control effect
# How it was run: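 5 nM human CYP2C19 with 10uM Luciferin-H EGE (at KM) in 50mM KPO4, compound preincubated 10 min at 37C, then NADPH regeneration for 60 min at 37C. Luciferin read by luminescence after detection reagent; normalized to 57uM ketoconazole as full inhibition.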
# [4] = target: Estrogen receptor (Homo sapiens) (UniProt P03372); assay: qHTS assay for small molecule antagonists of estrogen receptor alpha signaling (AID 588513; active = well fitted curve in the direction sought with a large enough effect in the signal ratio, with a control signal flat, not every such curve was filed as active; inconclusive = small, poorly fitted or top-dose-only effect, or effect the other way, or a change in a side signal; inactive = no such curve, though single readings can be large or run the other way; the % refers to the signal ratio; also: potency is read from the fitted curve at half-maximal effect; as to activity, negative = inhibition: % is scaled to controls: 0 for no effect and ±100 for the full control effect); conditions: ER-alpha-UAS-bla HEK293, beta-lactamase ratio, antagonist mode; activity, negative = inhibition: at 76.9 µM (top of the series) unless noted
# How it was run: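 Cells were plated at 5000/well and incubated 4 h at 37 C. Compounds were added as 1:2 dilution series, duplicates. 17-beta-estradiol (0.5nM final) was added for 18 h before CCF4 detection.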
# [5] = qHTS of pediatric cancer cell lines to identify multiple opportunities for drug repurposing: Confirmatory screen for NB1643 cells (AID 1347109); conditions: NB1643 neuroblastoma cell viability; series mostly up to 45.9 µM;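 also: plate controls were DMSO for no effect and bortezomib for full effect; nearly all actives have a fitted effect of over 45% in size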
# How it was run: (§1)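 Viability after 48 h compound treatment at 37C, 500-1,000 cells/well, read as ATP luminescence with CellTiter-Glo. Primary screens used 11-point (MIPE, 0.78 nM-46 µM) or 8-point (NPC, 0.59 nM-46 µM) final concentrations; follow-up screens used 11-point dilutions.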
# [6] = qHTS of pediatric cancer cell lines to identify multiple opportunities for drug repurposing: Confirmatory screen for LAN-5 cells (AID 1347113); conditions: LAN-5 neuroblastoma cell viability; series mostly up to 45.9 µM; also: potency is read from the fitted curve at half-maximal effect; nearly all actives have a fitted effect of over 65% in size
# How it was run: as §1
# [7] = qHTS of pediatric cancer cell lines to identify multiple opportunities for drug repurposing: Confirmatory screen for NB-EBc1 cells (AID 1347115); conditions: NB-EBc1 neuroblastoma cells, viability (cytotoxicity); series mostly up to 45.9 µM;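 also: cells exposed to compound for 48 h before the viability read; % is scaled to controls: 0 for no effect and ±100 for the full control effect; nearly all actives have a fitted effect of over 45% in size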
# How it was run: as §1
# [8] = qHTS of pediatric cancer cell lines to identify multiple opportunities for drug repurposing: Confirmatory screen for MG 63 (6-TG R) cells (AID 1347119); conditions: MG-63 (6-TG resistant) osteosarcoma viability; activity change, negative = cytotoxicity: at 45.9 µM (top of the series);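 also: plate controls were DMSO neutral control for no effect and bortezomib for full effect; nearly all actives have a fitted effect of over 55% in size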
# How it was run: as §1
# [9] = qHTS of pediatric cancer cell lines to identify multiple opportunities for drug repurposing: Confirmatory screen for Saos-2 cells (AID 1347127); conditions: Saos-2 osteosarcoma cell viability; series mostly up to 45.9 µM; also: potency is read from the fitted curve at half-maximal effect; nearly all actives have a fitted effect of over 60% in size
# How it was run: as §1
# [10] = qHTS of pediatric cancer cell lines to identify multiple opportunities for drug repurposing: Confirmatory screen for OHS-50 cells (AID 1347128); conditions: OHS-50 osteosarcoma cells viability; series mostly up to 45.9 µM;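 also: compound exposure lasted 48 h at 37 degrees C; % is scaled to controls: 0 for no effect and ±100 for the full control effect; nearly all actives have a fitted effect of over 55% in size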
# How it was run: as §1
# [11] = Quantitative high throughput screen for delayed death inhibitors of the malarial parasite plastid, 48 hour incubation (AID 488752); conditions: Plasmodium falciparum growth; series mostly up to 28.7 µM; also: nearly all actives have a fitted effect of over 65% in size; also: potency is read from the fitted curve at half-maximal effect; as to activity change, negative = inhibition: % is scaled to controls: 0 for no effect and ±100 for the full control effect
# How it was run: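 First, compound was pinned into RPMI 1640 medium containing 0.5% Albumax. Next, reporter-parasite-infected erythrocytes were added to 2% hematocrit and 0.1% parasitemia. After 48 h at 37 C under 5% CO2, luciferase detection reagent was added and luminescence read.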
# [12] = target: Tyrosine-protein phosphatase non-receptor type substrate 1 (Homo sapiens) + Leukocyte surface antigen CD47 (Homo sapiens) (UniProt P78324+Q08722); assay: CD47-SIRPalpha protein protein interaction - HTRF assay qHTS validation (AID 1347058; active = well fitted curve in the direction sought with a large enough effect in the signal ratio, not every such curve was filed as active; inconclusive = small, poorly fitted or top-dose-only effect, or effect the other way, or a change in a side signal; inactive = no such curve, though single readings can be large or run the other way; the % refers to the signal ratio; also: 0% is about no effect); conditions: TR-FRET HTRF CD47-His / biotin-SIRPalpha binding, ratio 665/615; series mostly up to 38.3 µM
# How it was run: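 Soluble extracellular domains (6His-CD47, Avi-tag-biotinylated SIRPalpha) in PBS pH 7.4 with 0.05% IGEPAL CA-630. Compounds were preincubated 30 min at RT with CD47 and anti-His-Eu, then SIRPalpha and SAV-XL665 were added. TR-FRET 665/615 ratio.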
# [13] = NCATS anti-infectives library activity on HEK293 viability as a counter-qHTS vs the C. elegans viability qHTS (AID 1745854); conditions: HEK293 viability counter-screen; series mostly up to 41.8 µM;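 also: HEK293 cells exposed to compounds for 24 hr before the viability read; % is scaled to controls: 0 for no effect and ±100 for the full control effect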
# How it was run: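 Counter-screen for cytotoxicity: HEK293, 24 hr, 37C, compounds up to 41.7 uM final (a dilution series, 1:5). Readout CellTiter-Glo luminescence, 10 min RT. Digitonin control, 83.3 uM final.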
# [14] = system: Zika virus NS2B-NS3 protease (linked); assay: 384 well plate NINDS AMC confirmatory qHTS for Zika virus inhibitors (AID 1347163); conditions: Recombinant NS2B-NS3 protease, Ac-VKTGKR-AMC fluorescence; series mostly up to 1 mM; also: potency is read from the fitted curve at half-maximal effect; nearly all actives have a fitted effect of over 50% in size
# How it was run: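 Fluorescence at 355/460 nm was read after 25 minutes of cleavage of 30 microM Ac-VKTGKR-AMC at room temperature, in the dark. Before substrate addition, compounds (up to 1 mM final) sat ~15 minutes with 5, 30 or 60 nM linked protease. Signals were normalized to no-enzyme and no-inhibitor wells.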
# [15] = Tertiary RLuc qRT-PCR qHTS assay for Zika virus inhibitors (AID 1347169); conditions: infected Vero cells, reporter luminescence, 48-72 h; series mostly up to 45.9 µM; also: nearly all actives have a fitted effect of over 55% in size; also: potency is read from the fitted curve at half-maximal effect
# How it was run: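 Orthogonal cell-based infection assay using recombinant ZIKV-RLuc (Cambodian) in Vero cells; compound added prior to virus at MOI 1-2. Incubation lasts 48-72 hrs at 37 degrees C before live-cell Renilla substrate is added and luminescence measured.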
# [16] = target: Muscarinic acetylcholine receptor M1 (Rattus norvegicus) (UniProt P08482); assay: qHTS Assay for Antagonists of Acetylcholine Muscarinic M1 Receptor: Measurement of IP-One Response (AID 944); conditions: CHO-M1 cells, IP-One HTRF, antagonist mode; series mostly up to 46.1 µM; also: potency is read from the fitted curve at half-maximal effect; nearly all actives have a fitted effect of over 75% in size
# [17] = system: Zika virus NS2B-NS3 protease (linked construct); assay: Primary screen NINDS Rhodamine qHTS for Zika virus inhibitors (AID 1347160); conditions: purified NS2B-NS3 protease, Rhodamine110 substrate fluorescence; series mostly up to 57.1 µM; also: nearly all actives have a fitted effect of over 55% in size; also: potency is read from the fitted curve at half-maximal effect
# How it was run: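 Enzyme (25 nM, linked NS2B-NS3) was preincubated 15 min with compound in 10 mM Tris-HCl pH 8.0, 0.01% Tween 20. Rhodamine110 substrate (1.5 microM) was then added and fluorescence read at start and after 15 min.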
# [18] = Quantitative High-Throughput drug screen in 47 multiple myeloma cell lines against the NCATS MIPE library collection: ARP1_JJKsccF8 cell viability assay (AID 1918928; also: nearly all actives have a fitted effect of over 40% in size; also: potency is read from the fitted curve at half-maximal effect); conditions: ARP1 myeloma cells viability, CellTiter-Glo ATP, 48 h; series mostly up to 45.8 µM
# How it was run: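 500 cells/well; MIPE 4.0 library pinned in; 48 h, 37 °C, 5% CO2; CellTiter-Glo ATP luminescence. Controls: DMSO = 100% viability, medium only = 0%.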
# [19] = Quantitative High-Throughput drug screen in 47 multiple myeloma cell lines against the NCATS MIPE library collection: KMS12BM_JCRB cell viability assay (AID 1918971); conditions: KMS12BM myeloma viability, CellTiter-Glo ATP, 48 h; series mostly up to 45.8 µM; also: potency is read from the fitted curve at half-maximal effect; nearly all actives have a fitted effect of over 35% in size
# How it was run: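 We plated 500 myeloma cells per well, pinned in MIPE 4.0 compounds, and incubated for 48 hours at 37C. ATP was then quantified with CellTiter-Glo, with DMSO and media-only wells defining 100% and 0%.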
# [20] = Quantitative High-Throughput drug screen in 47 multiple myeloma cell lines against the NCATS MIPE library collection: KMS12PE_JCRB cell viability assay (AID 1918972); conditions: KMS12PE myeloma viability, CellTiter-Glo ATP, 48 h; series mostly up to 45.8 µM; also: nearly all actives have a fitted effect of over 30% in size
# How it was run: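 Viability readout: CellTiter-Glo luminescence following 5 min room-temperature incubation with reagent. Prior exposure: 48 h, 37C, humidified 5% CO2, 500 cells per well.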
# Tags tell the direction and shape of the fitted curve or compound fluorescence and quenching.
# UniProt P78324, sequence (P78324 whole entry, looked up, the tested form may be a part): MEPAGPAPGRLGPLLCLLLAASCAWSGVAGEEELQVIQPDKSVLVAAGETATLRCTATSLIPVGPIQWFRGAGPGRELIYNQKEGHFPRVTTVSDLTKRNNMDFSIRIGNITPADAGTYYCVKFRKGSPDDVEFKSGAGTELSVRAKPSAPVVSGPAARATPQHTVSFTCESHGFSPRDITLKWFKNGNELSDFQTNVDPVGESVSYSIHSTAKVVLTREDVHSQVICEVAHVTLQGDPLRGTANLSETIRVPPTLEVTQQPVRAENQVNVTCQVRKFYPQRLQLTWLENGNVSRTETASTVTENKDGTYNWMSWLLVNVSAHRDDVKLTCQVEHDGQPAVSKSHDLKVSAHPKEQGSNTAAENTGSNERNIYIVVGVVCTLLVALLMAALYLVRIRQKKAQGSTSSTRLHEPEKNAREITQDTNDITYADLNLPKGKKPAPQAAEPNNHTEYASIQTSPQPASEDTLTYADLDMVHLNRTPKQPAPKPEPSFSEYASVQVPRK
# UniProt P78324, sequence (Q08722 whole entry, looked up, the tested form may be a part): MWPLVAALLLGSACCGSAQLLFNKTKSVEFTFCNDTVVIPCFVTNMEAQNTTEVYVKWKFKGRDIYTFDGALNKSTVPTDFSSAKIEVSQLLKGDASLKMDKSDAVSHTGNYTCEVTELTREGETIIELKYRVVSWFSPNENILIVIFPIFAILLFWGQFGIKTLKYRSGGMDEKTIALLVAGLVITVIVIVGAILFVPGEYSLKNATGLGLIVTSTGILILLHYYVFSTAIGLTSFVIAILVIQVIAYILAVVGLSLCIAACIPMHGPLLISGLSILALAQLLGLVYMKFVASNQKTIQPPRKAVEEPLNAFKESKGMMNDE
# UniProt P09958, sequence (P09958 whole entry, looked up): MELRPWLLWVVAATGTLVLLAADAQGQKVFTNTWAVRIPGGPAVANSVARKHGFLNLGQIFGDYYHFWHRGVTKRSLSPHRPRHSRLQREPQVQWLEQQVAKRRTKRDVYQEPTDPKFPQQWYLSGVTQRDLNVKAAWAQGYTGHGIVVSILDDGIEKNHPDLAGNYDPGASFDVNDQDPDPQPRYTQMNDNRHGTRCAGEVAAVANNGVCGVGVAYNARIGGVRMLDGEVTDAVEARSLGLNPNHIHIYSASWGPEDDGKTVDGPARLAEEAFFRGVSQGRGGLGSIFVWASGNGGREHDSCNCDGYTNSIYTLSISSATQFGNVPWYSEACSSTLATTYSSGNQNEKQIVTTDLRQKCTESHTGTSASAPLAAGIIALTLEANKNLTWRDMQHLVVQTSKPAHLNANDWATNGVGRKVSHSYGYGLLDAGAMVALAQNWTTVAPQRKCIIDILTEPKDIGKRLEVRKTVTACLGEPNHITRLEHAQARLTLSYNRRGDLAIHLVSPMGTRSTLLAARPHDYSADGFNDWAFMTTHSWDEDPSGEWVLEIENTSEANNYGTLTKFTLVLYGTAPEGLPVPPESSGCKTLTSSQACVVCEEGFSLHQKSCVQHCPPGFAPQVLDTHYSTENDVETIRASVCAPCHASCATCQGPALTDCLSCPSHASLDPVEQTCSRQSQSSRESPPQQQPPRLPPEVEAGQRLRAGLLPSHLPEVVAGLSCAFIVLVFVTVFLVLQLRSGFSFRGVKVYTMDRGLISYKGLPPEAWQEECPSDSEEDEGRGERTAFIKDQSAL
# UniProt P03372, sequence (P03372 whole entry, looked up): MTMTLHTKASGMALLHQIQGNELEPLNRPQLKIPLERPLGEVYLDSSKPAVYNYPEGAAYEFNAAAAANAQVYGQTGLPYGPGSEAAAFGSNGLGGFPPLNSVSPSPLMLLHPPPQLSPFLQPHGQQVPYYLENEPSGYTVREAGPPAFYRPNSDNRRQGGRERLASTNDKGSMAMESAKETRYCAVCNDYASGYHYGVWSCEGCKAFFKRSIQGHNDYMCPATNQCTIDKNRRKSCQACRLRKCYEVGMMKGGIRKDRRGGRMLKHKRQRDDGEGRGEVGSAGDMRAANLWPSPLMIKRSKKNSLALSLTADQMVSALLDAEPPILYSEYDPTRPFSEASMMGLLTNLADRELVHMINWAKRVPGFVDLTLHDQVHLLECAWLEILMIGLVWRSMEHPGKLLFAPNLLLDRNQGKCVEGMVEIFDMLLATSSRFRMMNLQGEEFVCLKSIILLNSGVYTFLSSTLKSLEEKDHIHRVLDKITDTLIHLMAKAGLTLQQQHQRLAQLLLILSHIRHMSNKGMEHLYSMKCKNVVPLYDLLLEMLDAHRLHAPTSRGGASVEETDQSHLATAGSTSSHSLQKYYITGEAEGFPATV
# UniProt P08482, sequence (P08482 whole entry, looked up): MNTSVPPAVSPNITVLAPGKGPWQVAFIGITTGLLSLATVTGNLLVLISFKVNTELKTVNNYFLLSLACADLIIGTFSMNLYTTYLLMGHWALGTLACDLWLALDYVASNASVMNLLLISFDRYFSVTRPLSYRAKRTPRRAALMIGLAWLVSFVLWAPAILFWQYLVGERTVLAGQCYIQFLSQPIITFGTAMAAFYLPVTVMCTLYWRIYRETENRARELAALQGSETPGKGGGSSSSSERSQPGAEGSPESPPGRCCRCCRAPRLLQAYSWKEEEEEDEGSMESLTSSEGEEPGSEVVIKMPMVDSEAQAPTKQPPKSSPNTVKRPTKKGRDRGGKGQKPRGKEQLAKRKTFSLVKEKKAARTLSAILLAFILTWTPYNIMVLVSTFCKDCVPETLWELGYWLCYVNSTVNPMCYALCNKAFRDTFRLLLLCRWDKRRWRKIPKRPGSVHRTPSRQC
# UniProt P33261, sequence (P33261 whole entry, looked up): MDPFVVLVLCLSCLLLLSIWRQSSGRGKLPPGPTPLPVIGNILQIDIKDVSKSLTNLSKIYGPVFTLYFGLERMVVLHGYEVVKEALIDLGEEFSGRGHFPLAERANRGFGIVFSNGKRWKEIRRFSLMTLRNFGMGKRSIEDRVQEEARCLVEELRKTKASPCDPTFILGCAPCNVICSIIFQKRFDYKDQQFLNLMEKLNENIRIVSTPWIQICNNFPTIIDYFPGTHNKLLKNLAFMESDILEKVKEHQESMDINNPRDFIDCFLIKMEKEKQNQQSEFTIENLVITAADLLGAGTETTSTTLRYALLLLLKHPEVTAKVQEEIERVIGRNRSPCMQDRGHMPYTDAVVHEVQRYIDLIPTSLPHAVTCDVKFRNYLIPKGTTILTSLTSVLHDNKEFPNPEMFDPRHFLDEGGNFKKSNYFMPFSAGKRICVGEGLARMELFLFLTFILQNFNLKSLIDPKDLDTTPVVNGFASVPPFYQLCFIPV
smiles,measurement,setting,value
C1=CC2C3C=CC(C3)C2C1 (stereo not given),Potency,[1],inactive
O=C(O)Cn1c(C(=O)Nc2nc(-c3ccccc3Cl)cs2)cc2ccccc21,Potency,[2],"inconclusive [inhibitor, partial curve, poor fit]"
C[C@H](CS)C(=O)N1CCC[C@H]1C(=O)O,Potency,[3],inactive
CC1(C)[C@@H]2CC[C@@]1(C)C(=O)C2,Potency,[4],inactive
CCCCC(CC)CNC(=O)CC(C)OC(=O)CCC(=O)O (stereo not given),Potency,[5],inactive
same,Potency,[6],"inconclusive [rising, full curve]"
same,Potency,[7],inactive
same,Potency,[8],inactive
same,Potency,[9],"inconclusive [rising, full curve, poor fit]"
same,Potency,[10],inactive
O=C1CC2(CCCC2)CC(=O)N1CCCCN1CCN(c2ncccn2)CC1,Potency,[11],inactive
same,Potency,[12],inactive
O=c1[nH]c(=O)n([C@H]2C[C@H](O)[C@@H](CO)O2)cc1I,Potency,[13],inactive
CC1(COc2ccc(CC3SC(=O)NC3=O)cc2)CCCCC1 (stereo not given),Potency,[4],"inconclusive [fluorescent, side channel, single point]"
same,Potency,[14],"inconclusive [inhibitor, full curve]"
same,Potency,[15],"inconclusive [inhibitor, partial curve]"
O=C(CCCCC(=O)Nc1c(I)cc(I)c(C(=O)O)c1I)Nc1c(I)cc(I)c(C(=O)O)c1I,"activity change, negative = inhibition",[15],inactive: 2.99% [at 5.25 µM]
CCCCC1=NC2(CCCC2)C(=O)N1Cc1ccc(-c2ccccc2-c2nn[nH]n2)cc1,Potency,[13],inactive
CCN(CC)CCNC(=O)c1cc(S(C)(=O)=O)ccc1OC,Potency,[16],"inconclusive [inhibitor, partial curve, poor fit]"
Cc1cn2cc(C(=O)N(C)CCO)cc(N[C@@H]3CCOc4cccc(C)c43)c2n1,Potency,[17],inactive
same,Potency,[18],inactive
same,Potency,[19],"inconclusive [rising, full curve, poor fit]"
same,Potency,[20],inactive
NC1CCN(c2cccc(Cl)n2)CC1,Potency,[16],"inconclusive [inhibitor, partial curve, poor fit]"
C[C@@H]1C[C@H]2[C@@H]3C[C@H](F)C4=CC(=O)C=C[C@]4(C)[C@@]3(F)[C@@H](O)C[C@]2(C)[C@@]1(O)C(=O)CO,Potency,[5],inactive
same,Potency,[6],"inconclusive [rising, full curve]"
same,Potency,[7],inactive
same,Potency,[8],inactive
same,Potency,[9],"inconclusive [rising, full curve, poor fit]"
same,Potency,[10],inactive
C[N+](C)(C)CC[N+]1(C)Cc2c(Cl)c(Cl)c(Cl)c(Cl)c2C1,Potency,[3],"inconclusive [inhibitor, full curve, poor fit]"
O=S(=O)(O)NC1CCCCC1,activation,[1],inconclusive: 3.71%
CCC(C)(Oc1ccc(C2(c3ccc(OC(C)(CC)C(=O)O)cc3)CCCCC2)cc1)C(=O)O (stereo not given),Potency,[17],"inconclusive [inhibitor, partial curve, poor fit]"
same,Potency,[18],"inconclusive [cytotoxic, single point]"
same,Potency,[19],"inconclusive [cytotoxic, full curve, poor fit]"
same,Potency,[20],inactive
FC(F)(F)c1ccccc1-n1ccnc1,Potency,[12],inactive
O=C(O)C(Cc1cc(I)c(O)c(I)c1)c1ccccc1 (stereo not given),Potency,[2],"inconclusive [inhibitor, single point]"
same,Potency,[14],"inconclusive [inhibitor, partial curve, poor fit]"
COCCCC/C(=N\OCCN)c1ccc(C(F)(F)F)cc1,Potency,[11],"inconclusive [inhibitor, single point]"
